The record followed here is the supplement of paper PMC4604168 (melanoma cell lines).

Some of the results follow. Repeats are few or missing, and single values can be far off.
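Also: cell number obtained by counting DAPI-stained nuclei in high-throughput microscope images with image analysis software, screen run in 1,536-well plates.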

The test has as its system WM115. In words: cell count relative to DMSO control; melanoma cells; higher = more viable cells. Particulars: library dose: low library concentration; 72 h.
Consider `Cc1ccc(NC(=O)c2cccc(N(C)C)c2)cc1NC(=O)c1ccc(O)cc1` + COc1ccc2c(c1)CCC1C2CCC2(C)C(NCCCCCCN3C(=O)C=CC3=O)CCC12 [U73122] (first compound 2 µM, partner dose 0.4 µM), for which the cell count worked out at 106%.

`CN(NC(=O)CC(=O)NN(C)C(=S)c1ccccc1)C(=S)c1ccccc1` + CCc1ccc(CCOc2ccc(CC3SC(=O)NC3=O)cc2)nc1 [pioglitazone] (first compound 0.006 µM, partner dose 2 µM): the cell count stood at 89.3%. The compound `CN(NC(=O)CC(=O)NN(C)C(=S)c1ccccc1)C(=S)c1ccccc1` + Oc1nc(-c2ccc(C(F)(F)F)cc2)nc2c1CSCC2 [XAV939] (first compound 0.006 µM, partner dose 2 µM) gave a cell count of 78.9%.

On to `CCc1ccc(CCOc2ccc(CC3SC(=O)NC3=O)cc2)nc1` (stereo unspecified) [pioglitazone] + CCN(CC)CCCCNc1ncc2cc(-c3cc(OC)cc(OC)c3)c(NC(=O)NC(C)(C)C)nc2n1 [PD173074] (first compound 2 µM, partner dose 0.1 µM), for which the cell count was found to be 103%.

In turn, `CN(NC(=O)CC(=O)NN(C)C(=S)c1ccccc1)C(=S)c1ccccc1` + Cc1cc([N+](=O)[O-])ccc1NS(=O)(=O)c1cc(Cl)ccc1Cl [FH535] (first compound 0.006 µM, partner dose 1 µM) showed a cell count of 88.2%.

In turn, `CC(C)(C)c1cnc(CSc2cnc(NC(=O)C3CCNCC3)s2)o1` + CCCCCCCCCCCC1=C(O)C(=O)C=C(O)C1=O [Embelin] (first compound 0.01 µM, partner dose 1.2 µM) displayed a cell count of 93%.
